In PubChem BioAssay AID651820 (National Center for Advancing Translational Sciences (NCATS), 2012):
Values joined by “and” are separate entries in the source; they are usually repeats but may differ in a detail not shown here. Identical values can stand only once. The whole screen tested about 340,000 compounds, of which about 12,000 (3.5%) were called active. This list was built around the results that the source calls inconclusive (neither active nor inactive); the mix of calls is not that of the screen. Calls come from the whole dose curve; as a rule, active = well fitted inhibition curve with a large enough effect; inconclusive = small, poorly fitted or top-dose-only effect, or another doubt; inactive = no such curve, though single readings can be large or run the other way. Potencies of inconclusive entries are left out as doubtful fits.

Assay: qHTS Assay for Inhibitors of Hepatitis C Virus (HCV)
Settings: Huh7.5.1 HCVcc-Cre (HCVcc is cell-culture hepatitis C virus) infection, luciferase reporter, 44 h; activity change, negative = inhibition: at 41.8 µM (top of the series) unless noted
Outline: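 Seed cells (1,000/well) for 4 h; treat with compound and infect with HCVcc-Cre, moi about 0.5. Incubate 44 h, then detect luciferase activity.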
% is set by controls: 0 for no effect and ±100 for the full control effect; potency is the fitted concentration of half-maximal effect; tags give direction and shape of the fitted curve.

SMILES | Potency | activity change, negative = inhibition
CS(=O)(=O)N1CCCC(C(=O)Nc2ccc(Br)cc2F)C1 (stereo not drawn) | inactive | 
CN1C(=O)C(N=Nc2ccc([N+](=O)[O-])cc2)SC1=S (stereo not drawn) | inactive | 
COc1ccc2c(c1)NC(C)(C)C=C2C | inconclusive [inhibitor, single point] | 
Nc1ncnc2c1ncn2[C@@H]1O[C@H](CNC(=O)[C@@H](N)C2CCCCC2)[C@@H](O)[C@H]1O | inactive | 
CCN1CCCC1CNC(=O)c1cn(C)c2ccc(S(=O)(=O)N3CCCCCC3)cc2c1=O (stereo not drawn) | inconclusive [inhibitor, single point] | 
Cc1cccc(NC(=O)CN(C)C(C)C(=O)Nc2ccc(S(=O)(=O)N3CCCC3)cc2)c1C (stereo not drawn) | inconclusive [inhibitor, single point] | 
Cc1cc(-c2sccc2Br)nc(-n2cccc2)n1 | active: 12.6 µM | 
CCC(=O)NN1CCN(c2ccncc2S(=O)(=O)N2CCCCC2)CC1 | inactive | 
CCOc1cc(/C=C\[N+](=O)[O-])ccc1OCC(=O)Nc1ccccc1C | active: 11.2 µM | 
Cc1cc(-c2csc(NCc3ccccc3)n2)c(C)n1C | inconclusive [inhibitor, partial curve] | 
COc1ccc(NC(=O)N2CCNC(=O)C2CC(=O)Nc2ccc(F)cc2)cc1 (stereo not drawn) | inactive | 
Cc1ccc(-c2nc(CS(=O)CC(=O)NCc3ccc4c(c3)OCO4)c(C)o2)cc1 (stereo not drawn) | inconclusive [inhibitor, single point] | 
Cc1ccc2nc3c(c(N)c2c1)CCN3C | inconclusive [inhibitor, partial curve, poor fit] | 
C[C@@H]1CN([C@H](C)CO)C(=O)c2cc(NS(=O)(=O)c3ccc(F)cc3)ccc2O[C@@H]1CN(C)Cc1ccc(Cl)c(Cl)c1 | active: 6.31 µM | 
O=c1cc(N2CCCCC2)c(-c2ccccc2)nn1Cc1cccc(F)c1 | inconclusive [inhibitor, partial curve] | 
Cc1nc2ccc(NS(=O)(=O)c3ccc(C)c(C)c3)cc2s1 | inconclusive [inhibitor, partial curve] | 
Cc1ccc2c(c1)c1c(n2CC(O)CN2CCCCCC2)CCCC1 (stereo not drawn) | active: 10 µM | 
COc1ccc(C(=O)Nc2cc(C(=O)c3ccccc3)c(C)oc2=O)cc1 | inactive | 
O=C(CCCc1nc(-c2ccc(Cl)cc2)no1)Nc1cccnc1 | inconclusive [inhibitor, single point] | 
N#C/C(=C\Nc1ccc2c(c1)OCCO2)c1nc2ccccc2[nH]1 | inconclusive [inhibitor, single point] | 
O=C(Nc1ccc(Br)cn1)c1ccc([N+](=O)[O-])cc1Cl | inconclusive [inhibitor, single point] | 
O=C(CSc1nnc(Nc2ccccc2F)s1)c1cc2ccccc2o1 | inactive | 
COc1ccc(C)cc1NC(=O)C(OC(=O)CNC(=O)c1ccc(Oc2ccccc2)cc1)c1ccccc1 (stereo not drawn) | inconclusive [inhibitor, single point] | 
C=CCc1ccccc1OCC(O)CN1CCN(c2ccccc2OC)CC1 (stereo not drawn) | inconclusive [inhibitor, partial curve] | 
C[C@@H](C(=O)NCC1CC1)[C@@H]1C[C@@]1(C)[C@@H](NC(=O)OCc1ccccc1)c1ccccc1 | active: 0.562 µM | 

SMILES | Potency | activity change, negative = inhibition
O=C(CC1SC(N2CCOCC2)=NC1=O)Nc1cccc(C(F)(F)F)c1 (stereo not drawn) | inactive | 
Cc1cc(-c2nnc(CSc3nnc(NC(=O)c4ccc(C(C)(C)C)cc4)s3)o2)ccc1[N+](=O)[O-] | inconclusive [inhibitor, full curve, poor fit] | 
COc1ccc(-n2nc3cc(C)c(NC(C)=O)cc3n2)cc1 | inactive | 
CCOC(=O)C(=Cc1ccc(-c2ccsc2C(=O)OC)o1)C(=O)OCC | inconclusive [inhibitor, single point] | 
Cc1ccc(S(=O)(=O)N(CC(=O)NCc2cccs2)c2ccccc2)cc1 | inconclusive [inhibitor, single point] | 
Cc1cc(S(=O)(=O)N2CCCC(N3CCOCC3)C2)c(C)cc1Cl (stereo not drawn) | inconclusive [inhibitor, single point] | 
CC1(C)CCc2cc(-c3ccn(S(=O)(=O)c4ccccc4Cl)n3)ccc2O1 |  | inconclusive: -32% [inhibitor]
CCCCCCCCCCCCCCCC[n+]1ccccc1 | active: 11.2 µM and active: 3.16 µM | 
COc1ccc(-c2nc(C#N)c(N3CCCCCC3)o2)cc1OC | active: 10 µM | 
CCN(CC(=O)NC(C)(C)C)C(=O)CCl | inconclusive [inhibitor, single point] | 
Cc1sc(NC(=O)CSc2nnc(CCNC(=O)c3cccs3)n2C)nc1-c1ccccc1 | inconclusive [inhibitor, single point] | 
O=C(Nc1cccc(S(=O)(=O)N2CCCCC2)c1)C1CC(=O)N(Cc2ccco2)C1 (stereo not drawn) | inconclusive [inhibitor, single point] | 
O=C(O)c1ccc(S(=O)(=O)N2CCC(n3nnc4cc(C(F)(F)F)ccc43)CC2)cc1 | inactive | 
Cc1cc(=O)[nH]c(SCC(=O)Nc2nc(-c3ccccc3)c(-c3ccccc3)o2)n1 | inactive | 
O=C(Nc1ncc2c(n1)-c1ccccc1CC2)c1cccs1 | inactive | 
COC(=O)C1=C(c2cccc(OCc3ccccc3)c2)C[C@@H]2CC[C@H]1N2C(=O)NCc1ccc(C(F)(F)F)cc1 | active: 10 µM | 
COc1ccccc1-c1ccc(NC2CCCC2)nn1 | inconclusive [inhibitor, full curve] | 
COc1ccc(CCNC(=O)c2c(N)n(CCN3CCOCC3)c3nc4ccccc4nc23)cc1OC | inconclusive [inhibitor, partial curve] | 
CCn1nc(NC(=O)C(C)(C)C)c2cc3cccc(C)c3nc21 | inconclusive [inhibitor, single point] | 
Nc1nc2ccc(-c3nc4ccccc4o3)cc2s1 | inconclusive [inhibitor, single point] | 
Cn1c(CSCc2ccc(F)cc2)n[nH]c1=S | inactive | 
COc1cccc(-n2c(SC3CCOC3=O)nc3ccccc3c2=O)c1 (stereo not drawn) | inconclusive [inhibitor, full curve, poor fit] | 
Cc1ccc(N(CC(=O)NCC2CCCO2)C(=O)CCC(=O)Nc2ccccn2)cc1 (stereo not drawn) | inactive | 
Cc1cc(C)c(CN2CCC(CO)(CCOc3ccccc3)CC2)cc1C | inconclusive [inhibitor, partial curve] | 
CCCOc1ccc(/C=N/NC(=O)CN2CCCCC2)cc1OCC | inactive | 

SMILES | Potency | activity change, negative = inhibition
O=C(Nc1cccc(-c2cccc(Cl)c2)c1)C1CCN(CC2CCOC2)CC1 (stereo not drawn) | active: 10 µM | 
COc1ccc(NCc2nnc(SCC(=O)Nc3nc(-c4ccccc4)cs3)n2-c2ccccc2)cc1 | inconclusive [inhibitor, partial curve] | 
C=C(C)COc1ccc2c(CC)cc(=O)oc2c1C | active: 11.2 µM | 
Clc1cc(Br)ccc1OCCOCCN1CCCC1 | inconclusive [inhibitor, single point] | 
Cc1ccccc1/C=N\NC(=O)c1csnn1 | inactive | 
CC1(C)Cc2sc3c(=O)[nH]c(=S)[nH]c3c2CO1 | inactive | 
CCc1cccc(C)c1NC(=O)CSc1nnc(CCCOc2ccc(Cl)cc2Cl)n1C | inconclusive [inhibitor, partial curve] | 
N/C(=N\OC(=O)CCCc1ccccc1)c1ccccc1Cl | inactive | 
Cc1ccc(/C=N\Nc2nc3ccc(Cl)cc3[nH]2)o1 | inactive | 
CN(C)S(=O)(=O)c1cc(NC(=O)CSc2ncc(C(F)(F)F)cc2Cl)ccc1Cl | inconclusive [inhibitor, partial curve] | 
O=C(NC(=S)Nc1ccccc1O)c1cccnc1 | inactive | 
COc1ccc(CNC(=O)CN(C)S(=O)(=O)c2ccc(Cl)cc2)cc1 | inconclusive [inhibitor, single point] | 
Cc1ccc(S(=O)(=O)N(C)c2ccc(C(=O)NCC3(N(C)C)CCCCC3)cc2)cc1 | inconclusive [inhibitor, single point] | 
Fc1ccc(C(OCCN2CCCC2)c2ccc(F)cc2)cc1 | inconclusive [inhibitor, partial curve] | 
COCCNC(=O)/C(C#N)=C/C=C/c1ccccc1[N+](=O)[O-] | inconclusive [inhibitor, single point] | 
Cc1ccc(-c2cc(C(=O)N/N=C/C=C/c3ccco3)c3ccccc3n2)cc1C | inconclusive [inhibitor, single point] | 
COc1ccc(NC(=O)CN(C)C(=O)COc2ccccc2Cc2ccccc2)cc1 | inconclusive [inhibitor, single point] | 
O=C(OCCN1CCCCC1)c1ccccc1Br | inactive | 
CCOc1ccc(CN(C)C(=O)CCl)cc1 | inconclusive [inhibitor, single point] | 
COCCn1c(C)cc(O)c(C(=O)Nc2cccc(Cl)c2)c1=O | inconclusive [inhibitor, single point] | 
COc1ccc(NC(=O)c2ccc([N+](=O)[O-])o2)cc1 | inconclusive [inhibitor, single point] | 
Cc1ccc(NC(=O)[C@@H]2CCCN2C(=O)[C@@H]2Cc3ccccc3CN2)c(C)c1 | inactive | 
C#Cc1ccc(CN2CCC(C(=O)Nc3ccc(Oc4ccccc4)nc3)CC2)cc1 | active: 4.47 µM | 
